The antibiotic and cytotoxicity screens of Wong et al. (2023)
The other results are listed elsewhere or left out.

Legend:
[1] = system: HSkMC (human skeletal muscle cells); assay: cytotoxicity call (relative viability < 0.9); conditions: 10 µM
[2] = system: HepG2; assay: cytotoxicity call (relative viability < 0.9); conditions: 10 µM
[3] = system: S. aureus RN4220; assay: growth inhibition call (relative growth <= 0.2); conditions: 50 µM

O=C(NCCN1CCOCC1)[C@]1(CCS(=O)(=O)c2ccccc2)N=C(c2ccc(OCCCO)cc2)O[C@@H]1c1ccccc1
inactive: cytotoxicity call [1] | cytotoxicity call [2] | growth inhibition call [3]

C[C@@H]1CN([C@H](C)CO)C(=O)c2cccc(NS(=O)(=O)c3cccs3)c2O[C@H]1CN(C)Cc1ccncc1
inactive: cytotoxicity call [1] | cytotoxicity call [2] | growth inhibition call [3]

O=c1[nH]c(=O)c2[nH]c(=O)[nH]c2[nH]1
inactive: cytotoxicity call [1] | cytotoxicity call [2] | growth inhibition call [3]

C[C@@H]1CN([C@H](C)CO)C(=O)Cc2cc(NC(=O)CCCCCC(=O)Nc3ccccc3N)ccc2O[C@H]1CN(C)C(=O)Nc1ccccc1
inactive: cytotoxicity call [1] | cytotoxicity call [2] | growth inhibition call [3]

CN(C)CC(=O)N[C@@H]1CC[C@H](CCNS(=O)(=O)c2ccccc2)O[C@@H]1CO
inactive: cytotoxicity call [1] | cytotoxicity call [2] | growth inhibition call [3]
